Measurements: PMC12820563
This is one part of the list. The list includes weakly bound sequences.

Molecular target: T1, MBP-FoxP3dN (UniProt Q99JB6)
T1 sequence: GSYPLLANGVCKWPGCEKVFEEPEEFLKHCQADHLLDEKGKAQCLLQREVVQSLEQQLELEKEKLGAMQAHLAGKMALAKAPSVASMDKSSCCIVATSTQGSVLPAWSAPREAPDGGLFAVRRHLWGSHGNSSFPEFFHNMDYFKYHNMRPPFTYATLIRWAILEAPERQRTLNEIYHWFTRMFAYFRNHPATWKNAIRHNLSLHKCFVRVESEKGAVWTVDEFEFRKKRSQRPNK
Assay: PD-seq (MBP pull-down with sequencing)
Details: 20 mM Tris-HCl pH 7.5, 100 mM NaCl, 1.5 mM MgCl2, 0.4 uM protein, 0.1 uM dsDNA library, 30 min, room temperature, amylose pull-down; high values mean tight binding; double strand, one strand shown

| Sequence | binding signal (RPM ratio (pull-down/input)) |
| --- | --- |
| GATGATTGTTCTCCCAGCTGATGAATTGTGAACGTCGAGTAAACAAATTTTCCTAATCTTTCTGTTCAAGCGCCATCTAC | 0.519 |
| GATGATTGTTCTCCCAGCTGATGAATTGTGTCTGTCGAGTAAACAAATTTTCCTAATCTTTCTGTTCAAGCGCCATCTAC | 1.48 |
| GATGATTGTTCTCCCAGCTGATGAATTCGATGCCTCGAGTAAACAAATTTTCCTAATCTTTCTGTTCAAGCGCCATCTAC | 2.03 |
| GATGATTGTTCTCCCAGCTGATGAATTCGATTCCTCGAGTAAACAAATTTTCCTAATCTTTCTGTTCAAGCGCCATCTAC | 1.22 |
| GATGATTGTTCTCCCAGCTGATGAATTCGGGTAATCGAGTAAACAAATTTTCCTAATCTTTCTGTTCAAGCGCCATCTAC | 0.457 |
| GATGATTGTTCTCCCAGCTGATGAATTTACGCCGTCGAGTAAACAAATTTTCCTAATCTTTCTGTTCAAGCGCCATCTAC | 0.747 |
| GATGATTGTTCTCCCAGCTGATGAATTTGACTGGTCGAGTAAACAAATTTTCCTAATCTTTCTGTTCAAGCGCCATCTAC | 0.479 |
| GATGATTGTTCTCCCAGCTGATGAATTAGAGCAGTCGAGTAAACAAATTTTCCTAATCTTTCTGTTCAAGCGCCATCTAC | 0.36 |
| GATGATTGTTCTCCCAGCTGATGAATTTGATCAATCGAGTAAACAAATTTTCCTAATCTTTCTGTTCAAGCGCCATCTAC | 0.294 |
| GATGATTGTTCTCCCAGCTGATGAATTGTGACGTTCGAGTAAACAAATTTTCCTAATCTTTCTGTTCAAGCGCCATCTAC | 1.06 |
| GATGATTGTTCTCCCAGCTGATGAATTCCATACGTCGAGTAAACAAATTTTCCTAATCTTTCTGTTCAAGCGCCATCTAC | 0.394 |
| GATGATTGTTCTCCCAGCTGATGAATTCTCTGGTTCGAGTAAACAAATTTTCCTAATCTTTCTGTTCAAGCGCCATCTAC | 0.215 |
| GATGATTGTTCTCCCAGCTGATGAATTCTGCCCTTCGAGTAAACAAATTTTCCTAATCTTTCTGTTCAAGCGCCATCTAC | 1.13 |
| GATGATTGTTCTCCCAGCTGATGAATTCTTGGAATCGAGTAAACAAATTTTCCTAATCTTTCTGTTCAAGCGCCATCTAC | 0.177 |
| GATGATTGTTCTCCCAGCTGATGAATTGAGCCTATCGAGTAAACAAATTTTCCTAATCTTTCTGTTCAAGCGCCATCTAC | 1.63 |
| GATGATTGTTCTCCCAGCTGATGAATTTTTCTCCTCGAGTAAACAAATTTTCCTAATCTTTCTGTTCAAGCGCCATCTAC | 0.188 |
| GATGATTGTTCTCCCAGCTGATGAATTCTTGAATTCGAGTAAACAAATTTTCCTAATCTTTCTGTTCAAGCGCCATCTAC | 0.493 |
| GATGATTGTTCTCCCAGCTGATGAATTGTGTCCATCGAGTAAACAAATTTTCCTAATCTTTCTGTTCAAGCGCCATCTAC | 1.29 |
| GATGATTGTTCTCCCAGCTGATGAATTTATCTCATCGAGTAAACAAATTTTCCTAATCTTTCTGTTCAAGCGCCATCTAC | 0.69 |
| GATGATTGTTCTCCCAGCTGATGAATTACTCTGTTCGAGTAAACAAATTTTCCTAATCTTTCTGTTCAAGCGCCATCTAC | 0.315 |
| GATGATTGTTCTCCCAGCTGATGAATTCTCCCAATCGAGTAAACAAATTTTCCTAATCTTTCTGTTCAAGCGCCATCTAC | 0.232 |

| Sequence | binding signal (RPM ratio (pull-down/input)) |
| --- | --- |
| GATGATTGTTCTCCCAGCTGATGAATTGTGTTTCTCGAGTAAACAAATTTTCCTAATCTTTCTGTTCAAGCGCCATCTAC | 4.32 |
| GATGATTGTTCTCCCAGCTGATGAATTGGAGTCCTCGAGTAAACAAATTTTCCTAATCTTTCTGTTCAAGCGCCATCTAC | 0.398 |
| GATGATTGTTCTCCCAGCTGATGAATTACGTCCATCGAGTAAACAAATTTTCCTAATCTTTCTGTTCAAGCGCCATCTAC | 0.517 |
| GATGATTGTTCTCCCAGCTGATGAATTATTAAAGTCGAGTAAACAAATTTTCCTAATCTTTCTGTTCAAGCGCCATCTAC | 0.243 |
| GATGATTGTTCTCCCAGCTGATGAATTAAACAACTCGAGTAAACAAATTTTCCTAATCTTTCTGTTCAAGCGCCATCTAC | 1.08 |
| GATGATTGTTCTCCCAGCTGATGAATTCGATTAATCGAGTAAACAAATTTTCCTAATCTTTCTGTTCAAGCGCCATCTAC | 0.397 |
| GATGATTGTTCTCCCAGCTGATGAATTTAACCTTTCGAGTAAACAAATTTTCCTAATCTTTCTGTTCAAGCGCCATCTAC | 0.311 |
| GATGATTGTTCTCCCAGCTGATGAATTCGGGGCTTCGAGTAAACAAATTTTCCTAATCTTTCTGTTCAAGCGCCATCTAC | 0.379 |
| GATGATTGTTCTCCCAGCTGATGAATTGCAAGTATCGAGTAAACAAATTTTCCTAATCTTTCTGTTCAAGCGCCATCTAC | 1.12 |
| GATGATTGTTCTCCCAGCTGATGAATTTCCCACCTCGAGTAAACAAATTTTCCTAATCTTTCTGTTCAAGCGCCATCTAC | 0.238 |
| GATGATTGTTCTCCCAGCTGATGAATTCGTACGGTCGAGTAAACAAATTTTCCTAATCTTTCTGTTCAAGCGCCATCTAC | 0.369 |
| GATGATTGTTCTCCCAGCTGATGAATTTACAACTTCGAGTAAACAAATTTTCCTAATCTTTCTGTTCAAGCGCCATCTAC | 0.617 |
| GATGATTGTTCTCCCAGCTGATGAATTAGCGGGGTCGAGTAAACAAATTTTCCTAATCTTTCTGTTCAAGCGCCATCTAC | 0.388 |
| GATGATTGTTCTCCCAGCTGATGAATTGAGACAATCGAGTAAACAAATTTTCCTAATCTTTCTGTTCAAGCGCCATCTAC | 0.509 |
| GATGATTGTTCTCCCAGCTGATGAATTAACAATCTCGAGTAAACAAATTTTCCTAATCTTTCTGTTCAAGCGCCATCTAC | 0.562 |
| GATGATTGTTCTCCCAGCTGATGAATTGGAGCGTTCGAGTAAACAAATTTTCCTAATCTTTCTGTTCAAGCGCCATCTAC | 0.97 |
| GATGATTGTTCTCCCAGCTGATGAATTCGCTTAGTCGAGTAAACAAATTTTCCTAATCTTTCTGTTCAAGCGCCATCTAC | 0.978 |
| GATGATTGTTCTCCCAGCTGATGAATTTCCGGCTTCGAGTAAACAAATTTTCCTAATCTTTCTGTTCAAGCGCCATCTAC | 0.252 |
| GATGATTGTTCTCCCAGCTGATGAATTAGATCGCTCGAGTAAACAAATTTTCCTAATCTTTCTGTTCAAGCGCCATCTAC | 0.31 |
| GATGATTGTTCTCCCAGCTGATGAATTGAAGTTCTCGAGTAAACAAATTTTCCTAATCTTTCTGTTCAAGCGCCATCTAC | 0.457 |
| GATGATTGTTCTCCCAGCTGATGAATTTTCCCAATCGAGTAAACAAATTTTCCTAATCTTTCTGTTCAAGCGCCATCTAC | 0.285 |

| Sequence | binding signal (RPM ratio (pull-down/input)) |
| --- | --- |
| GATGATTGTTCTCCCAGCTGATGAATTATTTACGTCGAGTAAACAAATTTTCCTAATCTTTCTGTTCAAGCGCCATCTAC | 3.11 |
| GATGATTGTTCTCCCAGCTGATGAATTTACCCACTCGAGTAAACAAATTTTCCTAATCTTTCTGTTCAAGCGCCATCTAC | 0.435 |
| GATGATTGTTCTCCCAGCTGATGAATTATAATTTTCGAGTAAACAAATTTTCCTAATCTTTCTGTTCAAGCGCCATCTAC | 0.583 |
| GATGATTGTTCTCCCAGCTGATGAATTTGGTATGTCGAGTAAACAAATTTTCCTAATCTTTCTGTTCAAGCGCCATCTAC | 2.99 |
| GATGATTGTTCTCCCAGCTGATGAATTTACGTCTTCGAGTAAACAAATTTTCCTAATCTTTCTGTTCAAGCGCCATCTAC | 0.682 |
| GATGATTGTTCTCCCAGCTGATGAATTAGTCTGGTCGAGTAAACAAATTTTCCTAATCTTTCTGTTCAAGCGCCATCTAC | 0.491 |
| GATGATTGTTCTCCCAGCTGATGAATTCAAACAGTCGAGTAAACAAATTTTCCTAATCTTTCTGTTCAAGCGCCATCTAC | 0.589 |
| GATGATTGTTCTCCCAGCTGATGAATTGATTATGTCGAGTAAACAAATTTTCCTAATCTTTCTGTTCAAGCGCCATCTAC | 1.86 |
| GATGATTGTTCTCCCAGCTGATGAATTCCGATGGTCGAGTAAACAAATTTTCCTAATCTTTCTGTTCAAGCGCCATCTAC | 0.581 |
| GATGATTGTTCTCCCAGCTGATGAATTCCTTCTGTCGAGTAAACAAATTTTCCTAATCTTTCTGTTCAAGCGCCATCTAC | 0.214 |
| GATGATTGTTCTCCCAGCTGATGAATTCGTCATATCGAGTAAACAAATTTTCCTAATCTTTCTGTTCAAGCGCCATCTAC | 1.02 |
| GATGATTGTTCTCCCAGCTGATGAATTGCGATTGTCGAGTAAACAAATTTTCCTAATCTTTCTGTTCAAGCGCCATCTAC | 2.85 |
| GATGATTGTTCTCCCAGCTGATGAATTATCACCCTCGAGTAAACAAATTTTCCTAATCTTTCTGTTCAAGCGCCATCTAC | 0.367 |
| GATGATTGTTCTCCCAGCTGATGAATTCACCCGATCGAGTAAACAAATTTTCCTAATCTTTCTGTTCAAGCGCCATCTAC | 0.2 |
| GATGATTGTTCTCCCAGCTGATGAATTTCTCCTATCGAGTAAACAAATTTTCCTAATCTTTCTGTTCAAGCGCCATCTAC | 0.264 |
| GATGATTGTTCTCCCAGCTGATGAATTGATCTTATCGAGTAAACAAATTTTCCTAATCTTTCTGTTCAAGCGCCATCTAC | 0.343 |
| GATGATTGTTCTCCCAGCTGATGAATTGTTATAATCGAGTAAACAAATTTTCCTAATCTTTCTGTTCAAGCGCCATCTAC | 1.03 |
| GATGATTGTTCTCCCAGCTGATGAATTCCGTTGGTCGAGTAAACAAATTTTCCTAATCTTTCTGTTCAAGCGCCATCTAC | 1.33 |
| GATGATTGTTCTCCCAGCTGATGAATTTCCCCGTTCGAGTAAACAAATTTTCCTAATCTTTCTGTTCAAGCGCCATCTAC | 0.218 |
| GATGATTGTTCTCCCAGCTGATGAATTCCGTGCCTCGAGTAAACAAATTTTCCTAATCTTTCTGTTCAAGCGCCATCTAC | 0.796 |
| GATGATTGTTCTCCCAGCTGATGAATTACGAGCGTCGAGTAAACAAATTTTCCTAATCTTTCTGTTCAAGCGCCATCTAC | 0.56 |
